Assays:
Format in all cases: in vivo
[1] = test system: Plasmopara viticola; assay: Test Example G: Downy mildew on vine; conditions: for control value, Test G (downy mildew on vine): 250 ppm sprayed (2.5 ml/pot) before inoculation, assessed 7 to 10 days after inoculation; for Test G control value: Downy mildew on vine, 250 ppm sprayed, 7 to 10 days after inoculation; for Test G control value / Test G control value (downy mildew on vine): 2.5 ml/pot; for Test G control value (downy mildew on vine): 250 ppm spray, investigated 7 to 10 days after inoculation
[2] = test system: Puccinia recondita; assay: Test Example E: Brown rust on wheat; conditions: for control value, Test E (brown rust on wheat): Table 7, Test E; for Test E control value: Brown rust on wheat; for Test E control value (brown rust on wheat): class of control value, Table 7
[3] = test system: Alternaia brassicicola; assay: Test Example C: Alternaria sooty spot on cabbage; conditions: for control value, Test C (Alternaria sooty spot on cabbage): Table 7, Test C; for Test C control value: Alternaria sooty spot on cabbage; for Test C control value (Alternaria sooty spot on cabbage): class of control value, Table 7
[4] = test system: Blumeria graminis f. sp. hordei; assay: Test Example D: Powdery mildew on barley; conditions: for control value, Test D (powdery mildew on barley): Table 7, Test D; for Test D control value: Powdery mildew on barley; for Test D control value (powdery mildew on barley): class of control value, Table 7
[5] = test system: Botrytis cinerea; assay: Test Example B: Gray mold on tomato; conditions: for control value, Test B (gray mold on tomato): Table 7, Test B; for Test B control value: Gray mold on tomato; for Test B control value (gray mold on tomato): class of control value, Table 7

Row | Compound | Test G control value [1] | Test E control value [2] | Test C control value [3] | Test D control value [4] | Test B control value [5] | Test G control value (downy mildew on vine) [1] | Test E control value (brown rust on wheat) [2] | Test C control value (Alternaria sooty spot on cabbage) [3] | Test D control value (powdery mildew on barley) [4] | Test B control value (gray mold on tomato) [5] | other results
1 | CCn1c(-c2ccc(F)cc2Br)c(-n2ncc(C)c2Cl)cc(Cl)c1=O [Compound 331] | – | – | – | – | – | – | – | – | – | – | control value, Test G (downy mildew on vine) [1]: H (H shows the control value more than 50%); control value, Test E (brown rust on wheat) [2]: H (H shows the control value more than 50%); control value, Test C (Alternaria sooty spot on cabbage) [3]: H (H shows the control value more than 50%); control value, Test D (powdery mildew on barley) [4]: H (H shows the control value more than 50%); control value, Test B (gray mold on tomato) [5]: H (H shows the control value more than 50%)
2 | CCn1c(-c2c(F)cccc2F)c(-c2ccsc2Br)ccc1=O [Compound 44] | H (H shows the control value more than 50%) | H (H shows the control value more than 50%) | H (H shows the control value more than 50%) | H (H shows the control value more than 50%) | H (H shows the control value more than 50%) | – | – | – | – | – | –
3 | Cc1sccc1-c1ccc(=O)n(CC(F)F)c1-c1c(F)cccc1F [Compound 424] | – | – | – | – | – | H (H shows the control value more than 50%) | H (H shows the control value more than 50%) | H (H shows the control value more than 50%) | H (H shows the control value more than 50%) | H (H shows the control value more than 50%) | –
4 | CCn1c(-c2ccccc2C)c(-n2cc(C)cn2)cc(Br)c1=O [Compound 237] | – | – | – | – | – | – | – | – | – | – | control value, Test G (downy mildew on vine) [1]: L (L shows the control value of 50% or less); control value, Test E (brown rust on wheat) [2]: L (L shows the control value of 50% or less); control value, Test C (Alternaria sooty spot on cabbage) [3]: H (H shows the control value more than 50%); control value, Test D (powdery mildew on barley) [4]: L (L shows the control value of 50% or less); control value, Test B (gray mold on tomato) [5]: L (L shows the control value of 50% or less)
5 | CCn1c(-c2ccccc2C(F)(F)F)c(-n2ncc(C)c2Cl)cc(Cl)c1=O [Compound 375] | – | – | – | – | – | H (H shows the control value more than 50%) | H (H shows the control value more than 50%) | H (H shows the control value more than 50%) | H (H shows the control value more than 50%) | H (H shows the control value more than 50%) | –
6 | CCn1c(-c2c(F)cc(F)cc2F)c(-n2cc(F)cn2)cc(Cl)c1=O [Compound 192] | – | – | – | – | – | – | – | – | – | – | control value, Test G (downy mildew on vine) [1]: H (H shows the control value more than 50%); control value, Test E (brown rust on wheat) [2]: H (H shows the control value more than 50%); control value, Test C (Alternaria sooty spot on cabbage) [3]: H (H shows the control value more than 50%); control value, Test D (powdery mildew on barley) [4]: H (H shows the control value more than 50%); control value, Test B (gray mold on tomato) [5]: H (H shows the control value more than 50%)
7 | CCn1c(-c2c(F)cc(OC)cc2F)c(-c2cnco2)cc(Br)c1=O [Compound 90] | L (L shows the control value of 50% or less) | H (H shows the control value more than 50%) | H (H shows the control value more than 50%) | L (L shows the control value of 50% or less) | H (H shows the control value more than 50%) | – | – | – | – | – | –
8 | CCn1c(-c2c(F)cc(F)cc2F)c(-c2cccnc2Cl)ccc1=O [Compound 61] | H (H shows the control value more than 50%) | H (H shows the control value more than 50%) | H (H shows the control value more than 50%) | H (H shows the control value more than 50%) | H (H shows the control value more than 50%) | – | – | – | – | – | –
9 | CCn1c(-c2ccc(OC)cc2Cl)c(-c2ccsc2Cl)cc(Cl)c1=O [Compound 502] | – | – | – | – | – | H (H shows the control value more than 50%) | H (H shows the control value more than 50%) | H (H shows the control value more than 50%) | L (L shows the control value of 50% or less) | H (H shows the control value more than 50%) | –
10 | O=c1c(Br)cc(-c2cc(Br)sc2Br)c(-c2c(F)cccc2F)n1CC(F)F [Compound 325] | – | – | – | – | – | – | – | – | – | – | control value, Test G (downy mildew on vine) [1]: L (L shows the control value of 50% or less); control value, Test E (brown rust on wheat) [2]: L (L shows the control value of 50% or less); control value, Test C (Alternaria sooty spot on cabbage) [3]: H (H shows the control value more than 50%); control value, Test D (powdery mildew on barley) [4]: L (L shows the control value of 50% or less); control value, Test B (gray mold on tomato) [5]: L (L shows the control value of 50% or less)
11 | O=c1ccc(-c2cc(Br)sc2Cl)c(-c2c(F)cccc2F)n1CC(F)F [Compound 401] | – | – | – | – | – | L (L shows the control value of 50% or less) | L (L shows the control value of 50% or less) | H (H shows the control value more than 50%) | L (L shows the control value of 50% or less) | L (L shows the control value of 50% or less) | –
12 | CN1C(=O)CCC(c2cccs2)=C1c1c(F)cccc1F [Compound 1] | L (L shows the control value of 50% or less) | L (L shows the control value of 50% or less) | L (L shows the control value of 50% or less) | L (L shows the control value of 50% or less) | L (L shows the control value of 50% or less) | – | – | – | – | – | –
13 | CCn1c(-c2ccc(F)cc2C#N)c(-n2ncc(C)c2Cl)cc(Br)c1=O [Compound 486] | – | – | – | – | – | H (H shows the control value more than 50%) | H (H shows the control value more than 50%) | H (H shows the control value more than 50%) | H (H shows the control value more than 50%) | H (H shows the control value more than 50%) | –
14 | O=c1c(Cl)cc(-n2cnc(Cl)c2Cl)c(-c2ccccc2Cl)n1CC(F)F [Compound 232] | – | – | – | – | – | – | – | – | – | – | control value, Test G (downy mildew on vine) [1]: L (L shows the control value of 50% or less); control value, Test E (brown rust on wheat) [2]: H (H shows the control value more than 50%); control value, Test C (Alternaria sooty spot on cabbage) [3]: H (H shows the control value more than 50%); control value, Test D (powdery mildew on barley) [4]: H (H shows the control value more than 50%); control value, Test B (gray mold on tomato) [5]: H (H shows the control value more than 50%)
15 | CCn1c(-c2c(F)cc(OC)cc2F)c(-c2oc(Cl)nc2Cl)cc(Cl)c1=O [Compound 114] | L (L shows the control value of 50% or less) | H (H shows the control value more than 50%) | H (H shows the control value more than 50%) | L (L shows the control value of 50% or less) | H (H shows the control value more than 50%) | – | – | – | – | – | –
16 | CNn1c(-c2c(F)cccc2F)c(-n2cc(F)cn2)cc(Br)c1=O [Compound 468] | – | – | – | – | – | L (L shows the control value of 50% or less) | H (H shows the control value more than 50%) | H (H shows the control value more than 50%) | L (L shows the control value of 50% or less) | H (H shows the control value more than 50%) | –
17 | Cn1c(-c2ccc(F)cc2Cl)c(-n2cc(Cl)cn2)cc(Cl)c1=O [Compound 452] | – | – | – | – | – | L (L shows the control value of 50% or less) | H (H shows the control value more than 50%) | H (H shows the control value more than 50%) | H (H shows the control value more than 50%) | H (H shows the control value more than 50%) | –
18 | CCn1c(-c2c(F)cc(F)cc2F)c(-n2cc(Cl)c(C)n2)cc(Cl)c1=O [Compound 142] | L (L shows the control value of 50% or less) | L (L shows the control value of 50% or less) | H (H shows the control value more than 50%) | L (L shows the control value of 50% or less) | L (L shows the control value of 50% or less) | – | – | – | – | – | –
19 | CCn1c(-c2c(F)cc(OC)cc2F)c(-c2ocnc2Br)cc(Br)c1=O [Compound 103] | L (L shows the control value of 50% or less) | H (H shows the control value more than 50%) | H (H shows the control value more than 50%) | H (H shows the control value more than 50%) | H (H shows the control value more than 50%) | – | – | – | – | – | –
20 | O=c1c(Cl)cc(-n2cc(Cl)cn2)c(-c2c(F)cc(F)cc2F)n1CC(F)(F)F [Compound 121] | L (L shows the control value of 50% or less) | L (L shows the control value of 50% or less) | L (L shows the control value of 50% or less) | L (L shows the control value of 50% or less) | L (L shows the control value of 50% or less) | – | – | – | – | – | –
21 | CCn1c(-c2c(F)cc(F)cc2F)c(-c2nn(C)cc2C)cc(Cl)c1=O [Compound 19] | L (L shows the control value of 50% or less) | H (H shows the control value more than 50%) | H (H shows the control value more than 50%) | H (H shows the control value more than 50%) | H (H shows the control value more than 50%) | – | – | – | – | – | –
